From paper PMC4336329 (PLoS ONE, 2015)
The campaign covered roughly 310,000 compounds. About 2,200 (0.71%) showed an effect of 50% or more. Effects have a minus sign here. This is one part of the list.

Biological target: human ether-à-go-go-related gene (hERG) potassium channel (human, UniProt Q12809)
Assay: primary screen, population patch clamp on CHO cells stably expressing hERG

Sequence of human ether-à-go-go-related gene (hERG) potassium channel (Q12809 whole entry, looked up): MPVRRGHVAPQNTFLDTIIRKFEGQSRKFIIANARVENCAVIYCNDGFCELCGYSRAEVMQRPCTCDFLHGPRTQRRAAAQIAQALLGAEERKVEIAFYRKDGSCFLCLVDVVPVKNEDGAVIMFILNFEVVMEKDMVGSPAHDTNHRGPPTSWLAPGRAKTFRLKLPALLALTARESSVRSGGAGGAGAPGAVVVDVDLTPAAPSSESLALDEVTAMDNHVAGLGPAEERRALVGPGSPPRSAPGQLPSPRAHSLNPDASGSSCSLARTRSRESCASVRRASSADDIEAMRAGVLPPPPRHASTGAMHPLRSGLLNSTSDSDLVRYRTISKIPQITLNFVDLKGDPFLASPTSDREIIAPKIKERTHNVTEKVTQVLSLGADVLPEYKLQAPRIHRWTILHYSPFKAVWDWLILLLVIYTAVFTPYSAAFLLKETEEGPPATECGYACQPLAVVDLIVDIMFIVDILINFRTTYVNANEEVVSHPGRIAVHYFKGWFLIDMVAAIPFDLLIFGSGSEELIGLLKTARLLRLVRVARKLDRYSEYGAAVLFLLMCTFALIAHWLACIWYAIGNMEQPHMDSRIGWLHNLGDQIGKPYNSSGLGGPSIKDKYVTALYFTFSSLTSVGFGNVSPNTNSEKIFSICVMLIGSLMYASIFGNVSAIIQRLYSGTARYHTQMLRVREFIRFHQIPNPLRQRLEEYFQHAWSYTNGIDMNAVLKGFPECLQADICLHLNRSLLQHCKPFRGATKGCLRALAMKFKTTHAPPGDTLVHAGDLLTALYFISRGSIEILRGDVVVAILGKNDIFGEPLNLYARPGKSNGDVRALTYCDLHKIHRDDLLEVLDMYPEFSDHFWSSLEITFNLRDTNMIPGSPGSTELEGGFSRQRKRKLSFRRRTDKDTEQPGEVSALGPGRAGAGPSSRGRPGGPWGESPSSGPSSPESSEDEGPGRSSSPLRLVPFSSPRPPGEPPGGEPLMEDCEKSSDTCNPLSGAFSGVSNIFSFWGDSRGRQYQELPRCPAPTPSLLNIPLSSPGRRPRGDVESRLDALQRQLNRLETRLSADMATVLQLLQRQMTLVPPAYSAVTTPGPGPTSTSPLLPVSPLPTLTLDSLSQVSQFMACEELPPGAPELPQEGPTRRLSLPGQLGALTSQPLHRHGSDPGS

Row | SMILES | hERG current change (%, negative = inhibition) at 1uM
1 | COc1ccccc1NC(=O)CN1C(=O)NC(CC(C)C)C1=O (stereo not drawn) | 5.37%
2 | c1cnc(N2CCN(c3cnccn3)CC2)nc1 | 6.33%
3 | Cc1c(Cl)cccc1N(CC(=O)NC(C)c1ccccc1)S(C)(=O)=O (stereo not drawn) | 5.25%
4 | C[C@]12C(=O)N(c3ccc(C(F)(F)F)cc3)C(=O)N1[C@@H]1c3ccccc3OC[C@@H]1[C@H]2c1ccccc1 | 2.16%
5 | CNC(=O)c1cccc(NC(=O)CCCNC(=O)c2ccc(Cl)cc2)c1 | 10.7%
6 | CN1/C(=C\C(=S)NC(=O)c2cccc(Br)c2)C(C)(C)c2ccccc21 | 2.19%
7 | Cc1cc(C)c(S(=O)(=O)N(CC(=O)NCc2cccnc2)C2CCCCC2)c(C)c1 | 5.08%
8 | COC(=O)c1ccccc1NC(=S)NC(C)=O | 10.3%
9 | Cn1c(SCc2ccccn2)nnc1-c1ccncc1 | 3.35%
10 | CCN(CC)C(=O)c1ccc2c(c1)nnn2C | 6.32%
11 | CCC(c1nnnn1Cc1ccc(F)cc1)N(CCCO)Cc1cc2cc3c(cc2[nH]c1=O)OCO3 (stereo not drawn) | -1.03%
12 | CC1(C)NC(=O)N(CN2C(=O)NC(C)(C)C2=O)C1=O | 4.65%
13 | CCOC(=O)c1cccc(NC(=O)CSc2nnnn2CC)c1 | 1.51%
14 | CCN(CC)CCCn1c2c(c(SCC(=O)Nc3ccc(OC(F)(F)F)cc3)nc1=O)CCC2 | -45.7%
15 | C=CCn1c(SCC(=O)Nc2nnc(CC)s2)nnc1-c1ccco1 | 13.2%
16 | Cc1ccc(CNC(=O)CCc2cn(C)c3ccccc23)cc1 | 12.4%
17 | Cc1ccc(Nc2cc(=O)[nH]c(=O)[nH]2)c(C)c1 | 15.1%
18 | COCCCN(C(=S)Nc1cc(Cl)cc(Cl)c1)C(C)c1ccncc1 (stereo not drawn) | -2.08%
19 | Cc1ccc(-n2nc3c(=O)n(CCCC(=O)NCc4ccco4)nc(C)c3c2C)cc1 | 13.2%
20 | CC1CC(C)CN(c2ncnc3c2cnn3C)C1 (stereo not drawn) | -4.06%
21 | O=C(CN(C(=O)CCC(=O)Nc1nccs1)c1ccc(F)c(Cl)c1)NCC1CCCO1 (stereo not drawn) | 20.2%
22 | CC(=O)NC1C(=O)Nc2c(C)cc(C)cc21 (stereo not drawn) | 11.4%

Row | SMILES | hERG current change (%, negative = inhibition) at 1uM
23 | C=CCOc1ccc(/C=C/C(=O)OC(C)C(=O)Nc2ccc(NC(C)=O)cc2)cc1 (stereo not drawn) | 10.8%
24 | Cc1cccc(Nc2nc(OCC#N)nc(N(C)C)n2)c1 | 15.2%
25 | CC1CCCC(C)N1C(=O)Cn1c(=O)sc2ccccc21 (stereo not drawn) | 6.95%
26 | Cc1c(NS(=O)(=O)c2ccc(Cl)c(C(=O)OC(C)C(=O)NCc3ccco3)c2)c(=O)n(-c2ccccc2)n1C (stereo not drawn) | -9.87%
27 | O=C(Nc1ccccc1)Nc1ccc(C(=O)N2CCOCC2)cc1 | 23.2%
28 | Cc1noc(C)c1COc1ccccc1C(=O)NNC(=O)c1ccccc1 | 0.877%
29 | CCn1c(NC(C)=O)nc2ccccc21 | 20.2%
30 | CC(Sc1ccsc1[N+](=O)[O-])C(=O)NCc1ccccc1 (stereo not drawn) | 18.5%
31 | CCOc1ccc(NC(=O)CN2CCN(CC(=O)Nc3cc(OC)cc(OC)c3)CC2)cc1 | -71.3%
32 | CC(=O)Nc1ccc(OC(=O)c2cc3cc(Br)cc(Br)c3oc2=O)cc1 | 5.16%
33 | COc1ccc(S(=O)(=O)/N=C2/NC(=O)/C(=C\c3cc(OC)c(OC)cc3[N+](=O)[O-])S2)cc1 | 11.2%
34 | O=C(Nc1ncccc1O)C1CCN(S(=O)(=O)c2ccc3ccccc3c2)CC1 | 9.83%
35 | CCC(=O)Nc1ccc(C(=O)NCCCn2ccnc2)cc1 | 5.01%
36 | CCc1ccc(CNC(=O)c2cc3c(C)nc4ccccc4c3o2)cc1 | 13.3%
37 | Cc1ccc(NC(=O)CCSCCC(=O)Nc2ccc(C)c(C)c2)cc1C | 9.29%
38 | CCN(CCNC(=O)C1CCCN(Cc2nc(-c3ccc(OC)cc3)oc2C)C1)c1ccccc1 (stereo not drawn) | 5.86%
39 | Cc1cc(N=Cc2cc(Br)ccc2O)no1 | -1.67%
40 | CC(=O)c1cccc(NC(=O)NNC(=O)CCC(=O)Nc2ccc(C)c(C)c2)c1 | 9.49%
41 | Oc1ccc(O)c(Cc2nc3ccccc3s2)c1 | 7.28%
42 | COc1ccc(N(CC(=O)Nc2cc(C)on2)S(=O)(=O)c2cc(C)ccc2C)cc1 | -5.25%
43 | CCCCOC(=O)c1ccc(NC(=O)c2cc(Cl)ccc2OC)cc1 | 6.54%
44 | CCCn1c(N)c(N(CCOC)C(=O)CCC2CCCCC2)c(=O)[nH]c1=O | 5.13%

Row | SMILES | hERG current change (%, negative = inhibition) at 1uM
45 | CC(C)n1cc(C(=O)N2CCCC(Nc3ccc(F)c(F)c3)C2)cn1 (stereo not drawn) | 6.02%
46 | CC1CCN(C(=O)CSc2nc(N)c(NC(=O)c3ccccc3)c(=O)[nH]2)CC1 | 7.92%
47 | Cc1nnc(SCc2cccc([N+](=O)[O-])c2)[nH]c1=O | 7.89%
48 | COc1ccc(-c2nc(N/N=C(\C)c3ccc(O)cc3)c3ccccc3n2)cc1 | 7.19%
49 | O=C(CN1CCC(C(=O)c2ccc(F)cc2)CC1)Nc1ccccc1Cl | 7.94%
50 | CC(C)c1ccc(NC(=O)CSc2nc3ccsc3c(=O)n2CCC(=O)O)cc1 | 15.4%
51 | Cc1ccc(NC(=O)c2ccccc2N(C)S(C)(=O)=O)cc1C | 11.4%
52 | O=C1CSc2ccccc2N1Cc1ccccc1F | -16.8%
53 | CC(C)(C)c1ccc(-c2cc(-c3ccccc3O)[nH]n2)cc1 | 16.8%
54 | O=C(Nc1ccc2c(c1)OCO2)c1cc2n(n1)C(C(F)(F)F)CC(c1ccccc1)N2 (stereo not drawn) | 7.57%
55 | Cc1nn(C(C)C(=O)NC(C)CCc2ccccc2)c(=O)c2cc3occc3n12 (stereo not drawn) | -0.955%
56 | O=C(CCSCc1ccccc1)Nc1ccc2c(c1)OCCO2 | 7.61%
57 | CC1Nc2ncnc(N3CCOCC3)c2N(Cc2ccc(Cl)cc2)C1=O.O=C(O)C(F)(F)F (stereo not drawn) | 4.45%
58 | Cc1ccc(-c2nnc(C)c(N3CCCC3)n2)cc1 | 9.17%
59 | CCC(C)(C)n1nnnc1C(c1ccc(O)c(OC)c1)N1CCc2ccccc2C1.Cl (stereo not drawn) | -12.7%
60 | COc1ccc(NC(=O)C2CCCN2C(=O)OCc2ccccc2)c(OC)c1 (stereo not drawn) | 0.754%
61 | Cc1nn(-c2ccccc2)c(C)c1NC(=O)COc1ccc(F)cc1Cl | 0.849%
62 | CCOC(=O)N1CCN(C(=S)NC(=O)c2cncc(Br)c2)CC1 | 5.31%
63 | CC(=O)Nc1ccc(NC(=O)C2CCN(C(=O)c3cccs3)CC2)cc1 | 10%
64 | Cc1noc(NS(=O)(=O)c2ccc(NC(=O)c3ccc(N(C)C)cc3)cc2)c1C | 9.87%
65 | N/C(=N\OC(=O)c1cccc(Cn2cc(C(F)(F)F)ccc2=O)c1)c1ccc(Cl)cc1 | 11.4%
66 | Cc1[nH]c2ccccc2c1C(C[N+](=O)[O-])c1cccs1 (stereo not drawn) | 7.6%

Row | SMILES | hERG current change (%, negative = inhibition) at 1uM
67 | CS(=O)(=O)N(CC(N)=O)c1ccc2c(c1)OCO2 | 12.3%
68 | O=C(Cc1cccs1)N(Cc1cccs1)C1(C(=O)NC2CCCC2)CCCCC1 | 10.6%
69 | COc1ccc(/C=N/Nc2cc(=O)n(C)c(=O)n2C)cc1OC | 10.1%
70 | CC1CC(C)CN(C(=O)COC(=O)Cc2c[nH]c3ccccc23)C1 (stereo not drawn) | 12.2%
71 | COc1ccc(N2CCN(C(=O)C3CCCN(S(=O)(=O)c4ccc(F)cc4)C3)CC2)cc1 (stereo not drawn) | -7.16%
72 | CC(=O)NC(CC(=O)N(C)Cc1cccc(Cl)c1Cl)c1ccccc1 (stereo not drawn) | 6.88%
73 | O=C(CN1CCN(C(=O)c2ccccc2)CC1)Nc1ccccc1 | 3.18%
74 | O=C(c1cccs1)N(Cc1ccc(Cl)cc1)C1CCS(=O)(=O)C1 (stereo not drawn) | -0.0056%
75 | Cc1csc(=Nc2c(C)n(C)n(-c3ccccc3)c2=O)n1-c1ccccc1 | 16%
76 | Cc1ccc(/C=N/NC(=O)C2(O)c3ccccc3-c3ccccc32)o1 | 4.7%
77 | Cn1c(=O)c([N+](=O)[O-])c(NCC2CCCO2)c2ccccc21 (stereo not drawn) | 6.92%
78 | C/C=N\NC(=O)COc1cc(C)ccc1C | 10.4%
79 | O=C(CCC(=O)N1CCN(S(=O)(=O)c2ccc(Cl)cc2)CC1)NC1CCCc2ccccc21 (stereo not drawn) | -11.7%
80 | Cc1ccc(C)c(Nc2nc3c(S(=O)(=O)c4ccccc4)nnn3c3ccccc23)c1 | 4.12%
81 | CC(=O)Nc1ccc(C(=O)CSc2nnnn2C2CCCC2)cc1 | 11.3%
82 | CN(CCCS(=O)(=O)[O-])c1ccc(/C=C/c2ccc3ccccc3[n+]2C)cc1 | 16.4%
83 | O=S(=O)(Nc1ccccc1)c1ccc(S(=O)(=O)N2CCCC2)cc1 | -7.07%
84 | CCc1ccc(/C=C2/SC(=S)N(CCC(=O)Nc3ccc(C(=O)O)cc3)C2=O)cc1 | 15.3%
85 | CCc1nc2ccccc2c(C(=O)Nc2ccc(C)cc2)c1C | 16.4%
86 | CCCCC(=O)Nc1nnc(SCC(=O)NC2CCCC2)s1 | 17.1%
87 | O=C(CSc1ccc2nnc(CCNC(=O)c3ccc(F)cc3)n2n1)NCc1ccco1 | 9.13%
